This note sets out measurements from publication PMC4336329 (PLoS ONE, 2015).

The whole screen tested about 310,000 compounds, of which about 14,000 (4.5%) showed an effect of 50% or more. Effects have a minus sign here. This is one part of the list.
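Also: peak tail current of the secondary pulse compared with the same well before compound.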

In this test the target is human ether-à-go-go-related gene (hERG) potassium channel (human, UniProt Q12809). The experiment in a line: primary screen, population patch clamp on CHO cells stably expressing hERG.
human ether-à-go-go-related gene (hERG) potassium channel, sequence (Q12809 whole entry, looked up): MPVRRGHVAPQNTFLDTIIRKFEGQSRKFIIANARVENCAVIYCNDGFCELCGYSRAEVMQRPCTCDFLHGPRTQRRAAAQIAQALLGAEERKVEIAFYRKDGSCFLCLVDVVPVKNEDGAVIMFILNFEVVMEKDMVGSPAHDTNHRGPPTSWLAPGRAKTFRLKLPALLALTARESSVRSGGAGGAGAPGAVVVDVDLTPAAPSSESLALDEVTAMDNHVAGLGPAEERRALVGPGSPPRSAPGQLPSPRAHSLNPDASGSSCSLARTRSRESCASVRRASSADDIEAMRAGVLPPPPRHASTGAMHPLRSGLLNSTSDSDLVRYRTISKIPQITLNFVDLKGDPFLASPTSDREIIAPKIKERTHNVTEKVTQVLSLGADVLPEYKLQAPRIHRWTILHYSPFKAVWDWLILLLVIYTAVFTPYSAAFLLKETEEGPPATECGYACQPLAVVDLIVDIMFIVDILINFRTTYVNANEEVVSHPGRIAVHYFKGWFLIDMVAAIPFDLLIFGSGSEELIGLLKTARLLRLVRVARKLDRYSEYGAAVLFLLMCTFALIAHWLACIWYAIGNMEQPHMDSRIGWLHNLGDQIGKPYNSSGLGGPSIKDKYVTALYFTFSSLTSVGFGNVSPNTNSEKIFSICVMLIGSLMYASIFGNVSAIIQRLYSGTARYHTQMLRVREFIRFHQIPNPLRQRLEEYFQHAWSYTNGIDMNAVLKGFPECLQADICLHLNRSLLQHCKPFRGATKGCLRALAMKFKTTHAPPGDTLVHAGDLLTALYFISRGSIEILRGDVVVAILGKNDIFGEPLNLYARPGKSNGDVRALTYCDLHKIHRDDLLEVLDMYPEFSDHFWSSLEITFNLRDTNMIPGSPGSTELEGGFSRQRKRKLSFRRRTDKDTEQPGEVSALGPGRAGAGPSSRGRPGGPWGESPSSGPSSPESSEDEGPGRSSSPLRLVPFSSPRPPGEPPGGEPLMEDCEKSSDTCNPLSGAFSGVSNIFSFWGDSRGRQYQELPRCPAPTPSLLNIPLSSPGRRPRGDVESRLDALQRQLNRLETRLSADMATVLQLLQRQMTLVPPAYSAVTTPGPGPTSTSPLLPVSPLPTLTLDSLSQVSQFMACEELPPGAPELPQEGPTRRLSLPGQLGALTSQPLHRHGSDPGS
With `COc1ccc(C(=O)N(Cc2ccco2)Cc2cc3cc(C)ccc3[nH]c2=O)cc1OC`, the “hERG current change (%, negative = inhibition) at 10uM” value is given as -9.61%.

Regarding `COc1ccc(-c2ncncc2-c2ccccc2)c(O)c1`, the “hERG current change (%, negative = inhibition) at 10uM” value is reported as -0.926%.

In the case of `O=C(Nc1ccccc1)C1=C[C@H](c2coc3ccccc3c2=O)C[C@H](OCCCCO)O1`, the “hERG current change (%, negative = inhibition) at 10uM” value was -70.3%.

For `CC1CCc2c(sc(NC(=O)CN3CCN(C(=O)c4ccco4)CC3)c2C#N)C1` (stereo not shown), the “hERG current change (%, negative = inhibition) at 10uM” value is -41.5%.

`O=C(Nc1ccc2oc(=O)ccc2c1)c1cccnc1`: the “hERG current change (%, negative = inhibition) at 10uM” value was -5.25%.

Take `N#CC(C#N)=C(N)/C(C#N)=C\c1ccc(O)cc1`: the “hERG current change (%, negative = inhibition) at 10uM” value is given as 8.75%.

`O=C(Nc1ccccc1N1CCCCC1)c1ccc(N2C(=O)c3ccccc3C2=O)cc1`: the “hERG current change (%, negative = inhibition) at 10uM” value turned out to be 5.73%.

`Cc1ccc2c(Cn3cc(C(F)(F)F)cc(Cl)c3=O)cc(=O)oc2c1`: the “hERG current change (%, negative = inhibition) at 10uM” value is -3.27%.

As to `CCc1nnc(NC(=O)c2ccc(-c3ccc(Cl)cc3)o2)s1`, the “hERG current change (%, negative = inhibition) at 10uM” value came to 3.87%.

Regarding `CCOc1ccc2nc(Cl)c(C3CC(c4ccccc4)=NN3C(=O)c3ccco3)cc2c1` (stereo not shown), the “hERG current change (%, negative = inhibition) at 10uM” value came out at 3.9%.

Turning to `CCNC(=O)O/N=C(\C)c1sc(-c2ccccc2)nc1C`, the “hERG current change (%, negative = inhibition) at 10uM” value is -11.2%.

In the case of `CC(C)(C)Nc1ncnc2sc(-c3ccccc3)cc12`, the “hERG current change (%, negative = inhibition) at 10uM” value was -5.57%.

As to `CCN1CCN(CCC(=O)Nc2ccc3c(c2)OCO3)CC1.Cl`, the “hERG current change (%, negative = inhibition) at 10uM” value is recorded as 5.98%.

Take `Cc1nc(-c2ccccn2)sc1C(=O)Nc1ccc(F)cc1`: the “hERG current change (%, negative = inhibition) at 10uM” value is on record as -3.08%.

In the case of `O=C(Nc1ccc(F)cc1)N1CCN2C(=O)c3ccccc3C12c1ccccc1` (stereo not shown), the “hERG current change (%, negative = inhibition) at 10uM” value is reported as -16.6%.

For `CCOc1ccc(CCNS(=O)(=O)c2cc3c(cc2C)NC(=O)CO3)cc1OCC`, the “hERG current change (%, negative = inhibition) at 10uM” value was -22.7%.

As for `Cc1cc(NC(=O)CCC(=O)N(Cc2ccco2)C2(C(=O)NC3CCCCC3)CCCC(C)C2)no1` (stereo not shown), the “hERG current change (%, negative = inhibition) at 10uM” value was -24.1%.

As to `COc1ccc(CC(=O)NNC(=O)COc2ccc(Cl)cc2C)cc1S(=O)(=O)N1CCOCC1`, the “hERG current change (%, negative = inhibition) at 10uM” value is reported as -36.1%.

Consider `C/C(CC(=O)Nc1cccc2c1CCCC2)=N\NC=O`, for which the “hERG current change (%, negative = inhibition) at 10uM” value is reported as 23%.

Turning to `c1cncc(-c2nnc3n2C2(CCCCC2)Cc2ccccc2-3)c1`, the “hERG current change (%, negative = inhibition) at 10uM” value is -5.73%.

Turning to `CCN(CC)S(=O)(=O)c1ccc(OC)c(NC(=O)C2CC(=O)N(c3ccc4c(c3)OCCO4)C2)c1` (stereo not shown), the “hERG current change (%, negative = inhibition) at 10uM” value is recorded as -11.8%.

On to `CC(=O)c1cccc(NC(=O)N2CCCC2C(=O)Nc2ccc3c(c2)OCCO3)c1` (stereo not shown), for which the “hERG current change (%, negative = inhibition) at 10uM” value is -7.21%.

As to `CCc1ccc(NC(=O)c2sc3nc(C)nc(N4CCN(c5ccccn5)CC4)c3c2C)cc1`, the “hERG current change (%, negative = inhibition) at 10uM” value was 5.47%.

`COc1ccc(NC(=O)C(NC(C)=O)C(=O)NCc2ccccc2Cl)cc1` (stereo not shown): the “hERG current change (%, negative = inhibition) at 10uM” value is given as -2.4%.

`N/C(=N\S(=O)(=O)c1cc(C(F)(F)F)cc(C(F)(F)F)c1)c1ccccc1`: the “hERG current change (%, negative = inhibition) at 10uM” value was -8.14%.

With `C=CCNC(=S)/N=C/c1c(O)[nH]c(=O)[nH]c1=O`, the “hERG current change (%, negative = inhibition) at 10uM” value was -52.8%.

Regarding `CCS(=O)(=O)Nc1cccc(C(=C2CCCCC2)c2cnc[nH]2)c1`, the “hERG current change (%, negative = inhibition) at 10uM” value is -30.2%.

In the case of `C=CCn1c(-c2cccc(S(=O)(=O)N(CC)CC)c2)n[nH]c1=S`, the “hERG current change (%, negative = inhibition) at 10uM” value is 4.2%.

As for `CCN(CC)S(=O)(=O)c1ccc(Nc2nc3ccccc3n3nnnc23)cc1`, the “hERG current change (%, negative = inhibition) at 10uM” value was found to be 6.62%.

Regarding `O=C(CSc1nnc(-c2cccc(Cl)c2)o1)Nc1ccc2c(c1)OCCO2`, the “hERG current change (%, negative = inhibition) at 10uM” value is listed as -3.43%.

Consider `COc1ccc(NS(=O)(=O)c2cc(NC(=O)c3ccc(=O)[nH]n3)ccc2C)cc1`, for which the “hERG current change (%, negative = inhibition) at 10uM” value stood at 1.51%.

For `COC(=O)CCCC1=CC2=CC(=O)C(C)(OC(=O)c3cccs3)C(=O)C2=CN1Cc1ccccc1` (stereo not shown), the “hERG current change (%, negative = inhibition) at 10uM” value is on record as -16.8%.

`CCOc1ccc(N2C(=O)Nc3ccc(Br)cc3C2(O)C(=O)NC(C)C)cc1` (stereo not shown): the “hERG current change (%, negative = inhibition) at 10uM” value came out at 8.92%.

With `Cc1ccc(CN2CCC(N3CCC(C(=O)NCC4CCCO4)CC3)CC2)o1` (stereo not shown), the “hERG current change (%, negative = inhibition) at 10uM” value is -4.02%.

In the case of `C=CCn1c2ccccc2c2nnc(SC(CC)C(=O)Nc3nc(C)c(C(=O)OCC)s3)nc21` (stereo not shown), the “hERG current change (%, negative = inhibition) at 10uM” value is -43.9%.

With `Cc1nc2ccc(Cl)cc2c(-c2ccccc2)c1CC(=O)O`, the “hERG current change (%, negative = inhibition) at 10uM” value is on record as 21.3%.

On to `N#CC(c1nc2ccccc2nc1N1CCCC1)S(=O)(=O)c1cccs1` (stereo not shown), for which the “hERG current change (%, negative = inhibition) at 10uM” value is given as 15.5%.

On to `CN(C)S(=O)(=O)c1cccc(NC(=O)CSc2nnnn2-c2ccccc2)c1`, for which the “hERG current change (%, negative = inhibition) at 10uM” value is 0.149%.

In the case of `COC(=O)c1cc(NC(=O)CSc2nc(C)cc(=O)[nH]2)cc(C(=O)OC)c1`, the “hERG current change (%, negative = inhibition) at 10uM” value came out at 4.49%.

As to `O=S(=O)(c1cc(Cl)ccc1Cl)N1CCN(Cc2ccc3c(c2)OCO3)CC1`, the “hERG current change (%, negative = inhibition) at 10uM” value was -0.611%.

As for `Cc1nn(C)c(C(=O)N/N=C/c2cccc3ccccc23)c1Cl`, the “hERG current change (%, negative = inhibition) at 10uM” value is listed as -9.5%.

As for `CCn1cc([N+](=O)[O-])c(C(=O)N2N=C(c3ccc(OC)cc3OC)CC2c2ccccc2O)n1` (stereo not shown), the “hERG current change (%, negative = inhibition) at 10uM” value was 8.13%.

As to `CCOc1ccc(C(=O)Nc2cccc(-c3nc4cccnc4o3)c2)cc1Cl`, the “hERG current change (%, negative = inhibition) at 10uM” value is on record as -28%.

In the case of `Cc1nc2ccc(NC(=S)NC3CC3)cc2nc1C`, the “hERG current change (%, negative = inhibition) at 10uM” value is 1.58%.

Regarding `CC(=O)N(C(C)=O)c1ccc2nc(C)[nH]c(=O)c2c1`, the “hERG current change (%, negative = inhibition) at 10uM” value is 2.02%.

Regarding `c1ccc(-c2nnc(CSc3nnc(-c4ccncc4)n3Cc3ccco3)o2)cc1`, the “hERG current change (%, negative = inhibition) at 10uM” value is given as -29.8%.

In the case of `CC(=O)NCCn1c(SCc2cc(=O)n3cc(Cl)ccc3n2)nc2ccccc2c1=O`, the “hERG current change (%, negative = inhibition) at 10uM” value is -50.7%.

Turning to `Cc1cc(C(=O)COC(=O)CCC(=O)c2ccc3c(c2)OCCO3)c(C)n1Cc1ccco1`, the “hERG current change (%, negative = inhibition) at 10uM” value is on record as 8.06%.

`COc1ccc(/C=C(/C(=O)Nc2ccccc2C(=O)N2CCCC2)c2ccccc2)cc1`: the “hERG current change (%, negative = inhibition) at 10uM” value is recorded as -25.8%.

In the case of `Cc1c(NS(=O)(=O)c2ccc(NC3CCCC3)c([N+](=O)[O-])c2)c(=O)n(-c2ccccc2)n1C`, the “hERG current change (%, negative = inhibition) at 10uM” value is on record as -19.7%.

On to `CN(C)CCCN(Cc1ccccc1)C(=S)Nc1ccc(OC(F)F)cc1`, for which the “hERG current change (%, negative = inhibition) at 10uM” value is -70.3%.

Consider `CN(c1ccc(-c2csc(NC(=O)C3CC(=O)N(Cc4ccco4)C3)n2)cc1)S(C)(=O)=O` (stereo not shown), for which the “hERG current change (%, negative = inhibition) at 10uM” value is recorded as -19%.
